Reference: the supplement of paper PMC12067230
The data scatter; read single values as rough.
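Further: [psi-pin-] Saccharomyces cerevisiae expressing SupN fusions, induced by 100 µM Cu2SO4, selected 7 d at 30 °C without adenine and uracil, scored by deep sequencing of output versus input.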

Assay: amyloid nucleation score relative to library mode (yeast Sup35 reporter selection) (log enrichment difference); higher = more amyloid nucleation; sequences are the first 22 residues of the Bri2 peptide extended by up to 12 random residues
Conditions: random library (experiment): 1;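 active = nucleation score significantly above 0 at FDR 0.05; inactive = not significantly above 0 or absent from output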
In the case of EASNCFAIRHFENKFAVETLICDEWSNARARWGL, the amyloid nucleation score is reported as “inactive”.
For EASNCFAIRHFENKFAVETLICDFGAAIVGNEVM, the amyloid nucleation score was “inactive”.
In the case of EASNCFAIRHFENKFAVETLICDFLKETSISMCA, the amyloid nucleation score is reported as “inactive”.
In the case of EASNCFAIRHFENKFAVETLICDFPSAWTSKVER, the amyloid nucleation score is reported as “inactive”.
Sequence EASNCFAIRHFENKFAVETLICDFRCCSISICCQ has an amyloid nucleation score of 6.84.
In the case of EASNCFAIRHFENKFAVETLICDFREPKYKEHGS, the amyloid nucleation score is reported as “inactive”.
In the case of EASNCFAIRHFENKFAVETLICDFT, the amyloid nucleation score is reported as “inactive”.
With EASNCFAIRHFENKFAVETLICDFTFIVTTSPVS the amyloid nucleation score was 6.25.
Sequence EASNCFAIRHFENKFAVETLICDFTLSTYFRGET has an amyloid nucleation score of 6.27.
EASNCFAIRHFENKFAVETLICDFVLYMRKSESQ showed an amyloid nucleation score of 2.89.
With EASNCFAIRHFENKFAVETLICDFWSVTRFYTWN the amyloid nucleation score was “inactive”.
In the case of EASNCFAIRHFENKFAVETLICDG, the amyloid nucleation score is reported as “inactive”.
In the case of EASNCFAIRHFENKFAVETLICDGAIPRLSASRR, the amyloid nucleation score is reported as “inactive”.
With EASNCFAIRHFENKFAVETLICDGCKAPGREPSD the amyloid nucleation score was “inactive”.
With EASNCFAIRHFENKFAVETLICDGCRELICVMKP the amyloid nucleation score was “inactive”.
For EASNCFAIRHFENKFAVETLICDGECRPVTNRSR, the amyloid nucleation score was “inactive”.
With EASNCFAIRHFENKFAVETLICDGEIYLAVIKVP the amyloid nucleation score was “inactive”.
In the case of EASNCFAIRHFENKFAVETLICDGERGG, the amyloid nucleation score is reported as “inactive”.
In the case of EASNCFAIRHFENKFAVETLICDGGVLPYVVASL, the amyloid nucleation score is reported as “inactive”.
With EASNCFAIRHFENKFAVETLICDGGVVGLWDAWR the amyloid nucleation score was “inactive”.
For EASNCFAIRHFENKFAVETLICDGGYA, the amyloid nucleation score was “inactive”.
For EASNCFAIRHFENKFAVETLICDGHGRPPVWRV, the amyloid nucleation score was “inactive”.
For EASNCFAIRHFENKFAVETLICDGHMPTWSQVWL, the amyloid nucleation score was “inactive”.
In the case of EASNCFAIRHFENKFAVETLICDGHVSWGTGVIR, the amyloid nucleation score is reported as “inactive”.
For EASNCFAIRHFENKFAVETLICDGIRRRVVCGPW, the amyloid nucleation score was -0.0755.
With EASNCFAIRHFENKFAVETLICDGKRMGWLVWAG the amyloid nucleation score was “inactive”.
EASNCFAIRHFENKFAVETLICDGLECTMSNFCN gave an amyloid nucleation score of 2.02.
In the case of EASNCFAIRHFENKFAVETLICDGLTVNCPFKRN, the amyloid nucleation score is reported as 6.87.
In the case of EASNCFAIRHFENKFAVETLICDGLVWFAAKARM, the amyloid nucleation score is reported as “inactive”.
In the case of EASNCFAIRHFENKFAVETLICDGLWSMCVSPGS, the amyloid nucleation score is reported as 1.6.
In the case of EASNCFAIRHFENKFAVETLICDGLYR, the amyloid nucleation score is reported as “inactive”.
With EASNCFAIRHFENKFAVETLICDGMRNQGATG the amyloid nucleation score was “inactive”.
For EASNCFAIRHFENKFAVETLICDGNDDSNVALST, the amyloid nucleation score was “inactive”.
EASNCFAIRHFENKFAVETLICDGPWTF gave an amyloid nucleation score of 0.12.
In the case of EASNCFAIRHFENKFAVETLICDGQDLGRGSLCP, the amyloid nucleation score is reported as “inactive”.
For EASNCFAIRHFENKFAVETLICDGRGMLAEGTRD, the amyloid nucleation score was “inactive”.
For EASNCFAIRHFENKFAVETLICDGRLQSGGIR, the amyloid nucleation score was “inactive”.
With EASNCFAIRHFENKFAVETLICDGSMPGYPLERG the amyloid nucleation score was “inactive”.
With EASNCFAIRHFENKFAVETLICDGTLAPTSGSSL the amyloid nucleation score was -0.154.
In the case of EASNCFAIRHFENKFAVETLICDGTQCSRVLYVR, the amyloid nucleation score is reported as “inactive”.
With EASNCFAIRHFENKFAVETLICDGTYMSMTWRQG the amyloid nucleation score was “inactive”.
In the case of EASNCFAIRHFENKFAVETLICDGVLRSMQQVSH, the amyloid nucleation score is reported as “inactive”.
With EASNCFAIRHFENKFAVETLICDGVTAWIGVASV the amyloid nucleation score was “inactive”.
For EASNCFAIRHFENKFAVETLICDGWEPVVRVRAQ, the amyloid nucleation score was “inactive”.
In the case of EASNCFAIRHFENKFAVETLICDGYVSWHLKKCG, the amyloid nucleation score is reported as “inactive”.
For EASNCFAIRHFENKFAVETLICDHEFMCAYECRV, the amyloid nucleation score was “inactive”.
For EASNCFAIRHFENKFAVETLICDHEMLRGNCAGS, the amyloid nucleation score was “inactive”.
Sequence EASNCFAIRHFENKFAVETLICDHGPWYSMHMFG has an amyloid nucleation score of 0.307.
EASNCFAIRHFENKFAVETLICDHGRVKRGAVKC showed an amyloid nucleation score of 0.674.
For EASNCFAIRHFENKFAVETLICDHGVTFVCGTR, the amyloid nucleation score was 6.97.
Sequence EASNCFAIRHFENKFAVETLICDIALCPACCLAN has an amyloid nucleation score of 5.38.

Same assay, conditions: random library (experiment): 2
In the case of EASNCFAIRHFENKFAVETLICDEWMVPNKLW, the amyloid nucleation score is reported as “inactive”.
Sequence EASNCFAIRHFENKFAVETLICDEWSPNEVWSRR has an amyloid nucleation score of -0.223.
In the case of EASNCFAIRHFENKFAVETLICDF, the amyloid nucleation score is reported as “inactive”.
For EASNCFAIRHFENKFAVETLICDFALSYIDKYGV, the amyloid nucleation score was “inactive”.
For EASNCFAIRHFENKFAVETLICDFCSDTFNDASG, the amyloid nucleation score was 6.28.
In the case of EASNCFAIRHFENKFAVETLICDFFCYLSWRMEV, the amyloid nucleation score is reported as “inactive”.
EASNCFAIRHFENKFAVETLICDFG gave an amyloid nucleation score of 0.454.
For EASNCFAIRHFENKFAVETLICDFGFNMGRILDE, the amyloid nucleation score was 5.72.
